Whole data set: some 33,000 sequences, median “E-score (-0.5 to 0.5)” near -0.053, cut for the highest 2% near 0.37. The list shows a part of the results.
target: Hap1 (UniProt P0CE41); assay: PBM E-score (8-mer binding enrichment) (E-score (-0.5 to 0.5)); higher = stronger / more preferred TF binding; most listed sequences are background and not binding sites; settings: protein concentration: 200 nM; construct: GST-DNA-binding domain
Experimental: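 Universal 'all 10-mer' protein binding microarrays (Agilent AMADID 015681) probed with GST-tagged S. cerevisiae TFs (full-length or DBD) made by in vitro transcription/translation (PURExpress), about 100-200 nM. Bound TF was detected with fluorescent anti-GST. Each ungapped 8-mer (which stands for itself and its reverse complement) is scored by the PBM enrichment score (E-score), a modified Wilcoxon-Mann-Whitney statistic from -0.5 to +0.5, computed with the Universal PBM Analysis Suite. Scale: above 0.35 generally sequence-specific binding.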

UniProt P0CE41, sequence (P0CE41 whole entry, the tested form may be a part): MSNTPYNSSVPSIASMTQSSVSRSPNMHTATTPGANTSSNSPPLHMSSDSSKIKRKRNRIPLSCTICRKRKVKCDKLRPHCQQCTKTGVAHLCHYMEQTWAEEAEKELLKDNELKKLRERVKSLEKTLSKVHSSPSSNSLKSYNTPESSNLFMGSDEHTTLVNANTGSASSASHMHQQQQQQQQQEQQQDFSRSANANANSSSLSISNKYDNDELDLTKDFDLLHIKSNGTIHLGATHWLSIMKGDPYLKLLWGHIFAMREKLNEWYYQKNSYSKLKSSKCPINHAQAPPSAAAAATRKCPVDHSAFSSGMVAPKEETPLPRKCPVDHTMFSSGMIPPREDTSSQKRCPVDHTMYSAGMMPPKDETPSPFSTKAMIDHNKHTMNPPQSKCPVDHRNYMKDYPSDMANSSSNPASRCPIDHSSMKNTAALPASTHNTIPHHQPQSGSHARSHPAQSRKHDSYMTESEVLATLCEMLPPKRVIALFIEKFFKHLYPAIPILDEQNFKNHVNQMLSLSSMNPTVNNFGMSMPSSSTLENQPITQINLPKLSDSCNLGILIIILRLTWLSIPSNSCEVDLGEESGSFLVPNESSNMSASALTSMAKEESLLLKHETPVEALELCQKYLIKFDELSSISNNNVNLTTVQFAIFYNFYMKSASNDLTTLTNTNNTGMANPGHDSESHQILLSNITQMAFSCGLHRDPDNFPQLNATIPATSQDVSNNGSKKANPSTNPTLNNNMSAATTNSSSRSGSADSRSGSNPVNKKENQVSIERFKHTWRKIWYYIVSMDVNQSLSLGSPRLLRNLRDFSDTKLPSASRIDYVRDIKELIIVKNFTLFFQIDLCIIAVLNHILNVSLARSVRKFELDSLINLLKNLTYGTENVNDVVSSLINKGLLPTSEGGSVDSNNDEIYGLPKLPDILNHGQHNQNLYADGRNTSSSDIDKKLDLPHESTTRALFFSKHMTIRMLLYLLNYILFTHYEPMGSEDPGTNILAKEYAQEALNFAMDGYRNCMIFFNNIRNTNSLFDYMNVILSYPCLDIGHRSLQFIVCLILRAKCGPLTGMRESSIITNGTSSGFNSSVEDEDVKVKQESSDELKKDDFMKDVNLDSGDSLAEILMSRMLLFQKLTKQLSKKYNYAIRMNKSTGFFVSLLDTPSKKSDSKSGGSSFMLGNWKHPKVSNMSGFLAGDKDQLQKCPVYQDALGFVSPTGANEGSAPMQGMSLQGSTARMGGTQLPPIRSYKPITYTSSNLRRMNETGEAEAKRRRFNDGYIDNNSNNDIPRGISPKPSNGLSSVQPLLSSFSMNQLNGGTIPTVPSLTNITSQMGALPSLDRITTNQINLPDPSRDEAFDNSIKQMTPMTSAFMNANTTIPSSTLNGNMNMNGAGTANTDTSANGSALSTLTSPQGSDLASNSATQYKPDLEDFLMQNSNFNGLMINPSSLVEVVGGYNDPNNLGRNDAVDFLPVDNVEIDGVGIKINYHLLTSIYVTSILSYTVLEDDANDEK

Sequence	PBM E-score
AGGCCCGC	0.146
GATAGTAA	0.105
GTCAAAAC	0.0364
TATGTACA	-0.124
CCCACTAG	-0.234
GTGAGCTA	-0.237
TGCATCAA	-0.205
ATATAAAG	-0.0339
GGCGCATA	0.0763
CAAGACCG	0.186
ACTGCCTC	-0.00435
CATGAGAC	-0.0275
CTCTGAAG	-0.11
ATCATCCA	-0.0967
TGGCCTAA	-0.233
AACCGTCT	-0.00355
TGGCATAA	-0.164
CGACATAG	-0.127
TCCTGCAA	-0.144
CGTACGCA	-0.115
GGGGCGAC	-0.0967
TGACTGCA	-0.372
CTGGAGAC	-0.151
AAAAATTG	0.0279
AAAGGACG	-0.0881

Sequence	PBM E-score
CCGAAGTA	0.365
AGTTTTAT	-0.0975
CGCCATAC	-0.0654
TAGAAGAA	-0.0798
AATCAACT	0.0757
CAAATAAC	0.0155
AACCATTC	-0.1
CAATGCCA	-0.162
CGTTCTTA	0.108
ACATCGCC	0.18
CACTGGCG	-0.258
GGGCCTAC	0.00914
ATGTCCCG	0.234
GCACCACC	0.0604
CCTACAAA	-0.0726
ACTGTGCT	-0.132
ACCCGAGA	0.342
AGACCCGG	0.355
CGGTGAGA	0.12
CAATACAC	-0.167
GTGTTACA	-0.145
AAACGCTA	-0.194
GACGACAA	0.0017
AGGCGATA	0.119
GCCGTAGC	0.171

Sequence	PBM E-score
CGTCAGAG	-0.119
CTATTAAG	-0.172
AGCCGCCA	0.0907
TCACGGAA	0.329
AAGCATCC	-0.0729
CGGGCTCA	0.149
TATCAATA	-0.243
AACCACAC	0.0127
ATTGGAAA	-0.113
AGTAAAAT	-0.196
GCCTAACA	-0.0843
CAATGCAA	-0.186
GTACCTTA	-0.0597
CGGAGACC	0.349
CTGACAGA	-0.0898
CAAATGTG	0.0726
AAGTGAAC	-0.164
AGGGAGAT	-0.133
ACAAAAGC	0.0095
GTGCTCCA	-0.206
ATGATACC	0.132
AACGCTGC	-0.161
GCTCGTAA	-0.117
GCCACTAA	-0.158
ACTCGGCA	0.232

Sequence	PBM E-score
GCACACAA	-0.0118
AAGTGTCA	-0.299
AAGTAAAA	-0.142
AATCCAAG	-0.173
TCCGGACA	0.444
TACCTATA	-0.22
GTTTAATA	-0.171
ACTGACTA	-0.232
AAGCCGAA	0.334
ACCTCTAT	-0.132
CCGTACCC	0.0474
CGCCGCCA	0.146
AAAACCTA	-0.078
GGAACGCC	0.108
ACGGCCTG	-0.0121
CCACCTGA	0.014
AACACCGC	0.278
AAAATCAA	-0.0934
ATCACTAC	-0.187
TGTCTTAA	-0.0673
AGTTCGGA	0.366
ATTTGCAA	-0.11
GTCACTCA	-0.0768
CAGGCGGA	0.174
TAAAGAGA	-0.0182

Sequence	PBM E-score
ACTGCGTG	-0.275
GCAATCTA	0.00488
GCAGCTCA	-0.0752
CAGCGATC	0.0561
TGATAACA	-0.166
AGGTCGCA	0.101
AGGAGGGA	-0.105
GTTTCAAA	-0.165
GACACCAC	0.0232
AGATAAAT	0.0771
ACGGCAGC	0.0348
CGTAGTGA	-0.0696
ACATACTC	-0.129
AATGTAGC	0.0138
ACAGAGAT	-0.186
CACGCACG	0.0457
ATTGGGTG	0.0595
ATTTTGCC	-0.0764
CATCGTGG	-0.175
ACCGTGGG	0.088
TGCAGTAA	-0.0801
GTCCGGAA	0.416
ACTAGGCA	-0.195
AATATCTC	0.205
ATATTGCG	0.185

Sequence	PBM E-score
ACTCATTA	-0.00215
ACAGAGCA	-0.129
GTCCTCGA	-0.163
AGCAACAA	-0.112
ACGGTGAT	0.125
CAACGCGC	0.00913
ATTTGATC	0.0595
CGCCTCAG	0.0106
AATACCCC	0.314
CCTAGAAC	-0.126
AAAACCAG	-0.166
ATGGAATA	-0.0111
CCTATCTA	-0.233
ATCCGTCG	0.225
TAATCCCA	0.127
GATTGGAC	-0.108
CTGGTCTC	-0.234
GAACTGAC	0.0329
GCAACCAC	-0.0859
ACCCATTG	-0.119
ACGTTGCC	-0.122
CCACTAAA	-0.0762
ACAACGCA	-0.115
AGTTGGAG	-0.143
GCTCATGA	-0.121

Sequence	PBM E-score
GAGGGGTA	0.0493
AGAGCGAA	-0.0697
CATTAGAC	-0.142
TATAAATA	0.195
GGGTTTAC	0.281
ATACGCCG	0.263
ATACCTAA	-0.132
AGCGAGTA	0.122
CTGAGACC	-0.0632
GATCTCAA	0.026
ACTGGCAC	-0.11
AGTGCCAA	-0.254
GGATGGCC	-0.0478
AAACTAGC	-0.188
GGATAAAC	0.158
AAAGCACA	-0.15
GGTTACAA	-0.0255
AACGGGCG	0.246
AATACATA	-0.125
AACCTGCA	-0.109
AAGAAATC	-0.0581
CCCCGTGA	0.0342
CGCAGGTC	-0.0353
GAGAATAA	0.0733
ACAGCCAT	-0.132

Sequence	PBM E-score
AGTTCGAT	-0.0503
AATGGGGG	-0.0435
AAGAAAGC	-0.113
AACTCCGT	0.447
AGGCAACT	-0.057
TATCCTCA	0.0176
AAGGGACC	0.0134
AACGAAAT	0.119
CAACCGAA	0.183
ACAACACA	-0.305
GCGGGTAC	0.103
ACGGTAAG	0.067
AGAATGGC	-0.00255
TCATCGCA	-0.195
AGAGGCAG	-0.292
AATAGTGA	-0.138
AGCACGTG	-0.213
AGGGAGTG	-0.272
ACTAGCCC	0.0414
AACTGTAT	-0.0679
CCTCATAG	-0.199
CCAGGAAG	-0.204
GCTAGTAC	-0.0763
AATGCGTC	-0.131
CGGCTACC	0.193

Sequence	PBM E-score
CTGGCTCC	-0.189
AGAGCCTC	-0.206
CAGAGTAA	-0.0886
ACGGGAAG	-0.0758
GTTCCTTA	-0.0962
CAGAGATA	-0.182
AGTCCTGG	-0.193
AACTTTGA	-0.208
ACCCGTCG	-0.00468
AGGAAAGA	-0.275
CGCATCTC	0.0707
AGCACTCG	0.129
CAAAGATG	-0.0851
TCCTCGCA	-0.198
CCATCCTC	0.0314
GAAACACA	0.0173
GACCCATC	0.0237
CAGCGACA	-0.24
CGCGGAAA	0.337
CTGCTGCA	-0.238
CGCAGAAC	0.0877
CATTTCGG	0.28
ACGGATAA	0.282
CCACTTCC	-0.0712
AGTTTGAC	-0.0994

Sequence	PBM E-score
ATCAAGAC	-0.0493
CCACGCTA	-0.203
CAGTGTCA	-0.142
CTCTACGA	-0.3
TACATAGA	-0.0192
AGCCTCCG	0.192
GATTGGAA	-0.0798
GATACTAA	0.17
AAGTCATA	-0.137
AGAGGGGA	-0.0354
GTCTCACA	-0.0568
AACCGGCG	0.382
ATGGAAAG	-0.0424
GCAACCGC	-0.0271
ACGCAAGA	-0.0214
ACAGGTTG	-0.126
CCGTTTCA	0.166
CGCTCCCC	-0.0869
TCCTCAAA	-0.207
GGCCGACC	0.315
TATGCAAA	-0.357
AAATGCTA	-0.0409
AGAATATA	-0.141
AACGGGCA	0.0155
AATGCATC	-0.156

Sequence	PBM E-score
ACGATTCA	-0.052
AGGGTAAT	-0.012
CCTCGTCA	-0.161
ACTCAGTG	-0.193
CTAGTTGA	-0.229
CCCTGTAA	-0.102
AAAAAGCT	-0.177
CTCACTAC	-0.0522
AATTAGAG	-0.122
AGGTTAAA	-0.0926
CGAGGGCG	0.124
ACACAGAC	-0.131
ATATATGG	-0.00244
ACCATATC	0.0581
CAGCTTGA	-0.187
AGTCTAAG	0.0623
AGTACATA	-0.0856
GCAGTTCC	0.00727
ATTCTCAA	-0.157
GAGAGACA	-0.0896
CGTAATCC	0.213
ACTGTACC	0.0504
AGCCGCAG	-0.0372
AGATAAGG	0.0689
AGGTATAT	-0.261

Sequence	PBM E-score
ACAAGCCT	-0.166
GGTAGCTA	-0.194
TAGTGACA	-0.128
GTCTGCAA	-0.184
AGGGGATC	-0.182
ATTGTCAG	-0.199
AGCGACCC	0.142
CGGAGGCC	0.219
CACTGGCA	-0.198
TCATACAA	0.0241
CCAGCTCG	0.0135
ATATTCTG	0.04
CTATTGAA	-0.0758
AATACGTC	0.135
CTTACGCA	-0.171
CTAAGGTA	-0.0508
ACTTGTCC	0.152
ATTACATC	0.0813
ATTAGCGA	0.128
TTAAGTAA	-0.00225
CTAAGGAC	-0.218
ATTTATGC	-0.066
GACAAAAC	0.0411
ACGCTTAG	-0.177
AATCGTCT	-0.193

Sequence	PBM E-score
AGACTACA	-0.204
CAGGTTCG	-0.0124
AGTGTATG	0.0704
AGGCGTCA	-0.19
AAGCATTC	-0.0448
ATTCCGAG	0.397
CGGGGACC	0.255
ACAGGTGC	-0.0571
AGTGCCAG	-0.013
ACGGGCGA	0.333
ACGTAGTA	-0.0894
ACTGATGG	-0.192
CAACAGCC	-0.0502
CCGGTACA	0.367
CACGAAGA	-0.276
ATGTCATC	-0.0583
ACACGCTC	-0.0124
GGGGCGCA	-0.255
ACATTGAA	-0.105
ATCTAGCC	0.00196
CAGACTCG	-0.241
ACCTCAGC	-0.1
CTTGCCGA	0.0417
ATAACCTA	-0.219
CCGCACCG	0.305

Sequence	PBM E-score
ATTAGCTC	0.0644
AGGGCATG	-0.105
AGCCTACA	-0.226
ACCGTGAA	0.126
GGGCCTGA	-0.117
CACTCGCC	0.128
GACGAATA	0.102
CGTACAGA	-0.185
ATCTTCAA	-0.235
AATATGAG	-0.138
AAGGAATG	-0.155
AAATTATT	0.0461
CCCGAATA	0.331
AAGTAGAC	-0.0772
ACACAGGG	-0.139
GGGCTTGA	-0.292
CCAATTGC	-0.107
TGCTGTAA	-0.0487
CATGGCAA	-0.211

Source: the supplement of paper PMC3334620
